Source: PubChem BioAssay AID1865 (National Center for Advancing Translational Sciences (NCATS), 2009)
In all, about 280,000 compounds went through this assay and about 540 (0.19%) were called active. The inconclusive results got no clear call from the source; some entries with a clear call stand among them for comparison. Calls follow the shape of the dose curve; as a rule, active = well fitted activation curve with a large enough effect; inconclusive = small, poorly fitted or top-dose-only effect; inactive = flat fitted curve, though single readings scatter. A potency beside an inconclusive call is a rough fit, not a confirmed value.

Experiment: Quantitative High-Throughput Screen for Regulators of Epigenetic Control; also: nearly all actives have a fitted effect of over 60% in size; as to GFP activation: % of control where 0% means no effect
Conditions: murine LDR cells, GFP reporter derepression, 30 h; GFP activation: at 53.9 µM (top of the series)
Outline: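 Reporter derepression read as number of fluorescent GFP-positive objects, 20-120 um in size, counted by laser-scanning cytometer. Mouse LDR line with an epigenetically silenced CMV-GFP locus; compound incubation 30 h, 37 C.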
Potency is read from the fitted curve at half-maximal effect; tags tell the direction and shape of the fitted curve.

Compound	Potency	GFP activation
CCC(C)n1c(NC(=O)c2ccccc2)c(C#N)c2nc3ccccc3nc21 (stereo not given)	active: 20 µM	
O=C(Nc1c(Cl)cccc1Cl)c1cc(=O)n(Cc2ccccc2)c(=O)[nH]1	inactive	
COc1ccc2nc(NC(=O)C(NS(=O)(=O)c3cccc4nsnc34)C(C)C)sc2c1 (stereo not given)	inconclusive: 17.8 µM [activator, single point]	
COC(=O)c1c(-c2ccccc2)c(-c2ccccc2)nn(C)c1=O	inactive	
Cc1c(-c2nnc(SCC(=O)Nc3ccc(Cl)cc3)o2)nnn1-c1ccc(F)cc1	inconclusive: 25.1 µM [activator, single point]	
CC(C)[C@H](CO)Nc1nc(NCc2ccc(S(N)(=O)=O)cc2)c2ncn(C(C)C)c2n1	inconclusive: 35.5 µM [activator, single point]	
CN1CCN(C2=C(Cl)C(=O)N(c3ccc(Cl)c(Cl)c3)C2=O)CC1	inconclusive: 31.6 µM [activator, single point]	
CCOC(=O)c1c(NC(=O)CSc2nncn2C)sc(C)c1C	inconclusive: 0.0045 µM [activator, full curve, poor fit]	
Cc1ccc(/C=C/C(=O)Nc2ncc(C)s2)o1	inconclusive: 31.6 µM [activator, single point]	
Cc1ccc(C)c(N2CCN(C(=O)c3cc(S(=O)(=O)N4CCC(C)CC4)cn3C)CC2)c1	inactive	
CCC(C)NC(=O)c1[nH]c2cc(C)ccc2c1Sc1ccc(Cl)cc1 (stereo not given)	inconclusive: 35.5 µM [activator, single point]	
COc1cc2nc(/C=C/c3ccc(N(C)C)cc3)sc2cc1SC	active: 11.2 µM	
O=C(/C=C/c1ccc(Cl)c([N+](=O)[O-])c1)c1cccnc1	inconclusive: 15.8 µM [activator, single point]	
COc1ccc(C(=S)N(C)C)cc1OC	inactive	
COc1ccc(OC)c(-c2csc(-c3c(N)c(C(=O)c4ccc(Cl)cc4)n4ccccc34)n2)c1	inconclusive: 20 µM [activator, single point]	
NC(=O)C1CCN(C(=O)c2cccc(S(=O)(=O)N3CCc4ccccc4C3)c2)CC1	inactive	
Cc1nn(C)c(C(=O)NNC(=S)Nc2ccc(F)cc2)c1[N+](=O)[O-]	inactive	
COc1ccccc1S(=O)(=O)Cc1ccc(C(=O)N2CCN(c3ccccc3)CC2)o1	inactive	
C[N+](C)(C)CCC(=O)c1cccc2ccccc12	inactive	
COc1ccc(C=O)cc1Cn1c(=O)n(CCC(=O)NCc2ccco2)c(=O)c2sccc21	inconclusive: 31.6 µM [activator, single point]	
O=C(/C=C/c1ccncc1)c1ccc2c(c1)OCCO2	inconclusive: 5.62 µM [activator, single point]	
COc1ccc(C(=O)/C=C/c2ccccc2)c(OC)c1	inconclusive: 15.8 µM [activator, single point]	
CC(=O)c1ccc(NC(=O)CC2Nc3cc(C)c(C)cc3NC2=O)cc1 (stereo not given)	inconclusive: 31.6 µM [activator, single point]	
COc1ccc(-n2nnnc2-c2cnc(N3CCCC3)nc2C(F)(F)F)cc1	inactive	

Compound	Potency	GFP activation
Cc1ccc(C)c(/C=N/Nc2nc3ccccc3c(=O)n2O)c1	inactive	
COc1cc(C(=O)Oc2c(CN3CCOCC3)cc(Cl)c3cccnc23)cc(OC)c1OC	inconclusive: 20 µM [activator, single point]	
O=C(CNC(=O)c1ccc2c(c1)OCCO2)N/N=C/c1cccc(Br)c1	inactive	
COc1ccc(-c2nc(-c3cccc(C)c3)no2)cc1OC	inactive	
COc1ccc(Cn2c(SCC(=O)N(C)Cc3ccccc3)nc3ccccc32)cc1	inconclusive: 0.562 µM [activator, single point]	
CCOc1ccc(-c2nnc3ccc(SCc4ccc(C(=O)OC)o4)nn23)cc1	inconclusive: 35.5 µM [activator, single point]	
CCOC(=O)c1c(NC(=O)c2ccc(S(=O)(=O)N(C)C3CCCCC3)cc2)sc2c1CCN(C(C)C)C2	inconclusive: 31.6 µM [activator, single point]	
COc1ccccc1CNc1ncncc1-c1ccccc1CN(C)C	inactive	
C/C(=N\NC(=S)Nc1ccccc1)C1Cc2ccccc2C(=O)O1 (stereo not given)	inconclusive: 25.1 µM [activator, single point]	
C[C@@]12C(=O)OC(=O)[C@]1(C)[C@H]1CC[C@@H]2O1	inconclusive: 3.16 µM [activator, single point]	
CCN(c1ccccc1)S(=O)(=O)c1nnc(NC(=O)COc2cccc(C)c2)s1	active: 8.91 µM	
CCOc1ccc(C(=O)Nc2cnn(Cc3ccc(Cl)c(Cl)c3)c2)cc1	inactive	
CCOc1ccc(Cn2c3ccc(OC)cc3c3nc4ccccc4nc32)cc1OC	inconclusive: 25.1 µM [activator, single point]	
CC(C)NC(=S)N/N=C/c1sc(N2CCCCC2)nc1-c1cccs1	inconclusive: 35.5 µM [activator, single point]	
O=C1NCN(c2ccccc2)C12CCN(CCCC(c1ccc(F)cc1)c1ccc(F)cc1)CC2	inconclusive: 35.5 µM [activator, single point]	
Oc1ccc2ccccc2c1N=Nc1ccccn1	inconclusive: 31.6 µM [activator, single point]	
CC(=O)C1=C(C)NC(SCC(=O)c2ccc(-c3ccccc3)cc2)=C(C#N)C1c1cccnc1 (stereo not given)	inconclusive: 28.2 µM [activator, single point]	
COc1ccccc1C(=O)Nc1ccc2c3c(cccc13)CC2	inconclusive: 17.8 µM [activator, single point]	
Cc1c(NC(=S)N/N=C/C=C/c2ccccc2)c(=O)n(-c2ccccc2)n1C	inconclusive: 28.2 µM [activator, single point]	
C/C=C\C1=C(CO)C(=O)C2O[C@]2(CC=C(C)C)C1=O (stereo not given in full)		inactive: 0.833% [at 10.1 µM]
COc1ccccc1C(=O)NCCC(=O)N1CC(=O)Nc2ccccc21	inactive	
Cc1[nH]c2ccccc2c1/C=N/Nc1ccc([N+](=O)[O-])cc1S(=O)(=O)Nc1ccc(Cl)cc1	inconclusive: 3.16 µM [activator, partial curve]	
CCN(CC)C(=O)c1c(C)[nH]c(=S)c(C#N)c1-c1ccco1	inactive	
CC(=O)c1ccc(NC(=O)c2cc(C)nc3c2c(C)nn3-c2ccc(C)cc2)cc1	inconclusive: 25.1 µM [activator, single point]	

Compound	Potency	GFP activation
CN(C)c1ccc(/C=C/C(=O)c2c(O)c3ccccc3oc2=O)cc1	inconclusive: 12.6 µM [activator, single point]	
CN1C2CCC1/C(=C\c1ccccc1)C(=O)/C2=C\c1ccccc1	inconclusive: 35.5 µM [activator, single point]	
Cc1ccsc1C=Nc1ccc(O)cc1	inconclusive: 31.6 µM [activator, single point]	
CN(C)S(=O)(=O)c1ccc(Cl)c(NC(=O)CSc2nc3c(cc2C#N)C(=O)CCC3)c1	active: 25.1 µM	
COc1ccc(-n2c(-c3ccc(Cl)cc3)c[n+]3c2CCCCC3)cc1	inactive	
Nc1c(C(=O)O)sc2nc(-c3ccc(F)cc3)cc(-c3ccccc3)c12	inconclusive: 31.6 µM [activator, single point]	
COc1cc(/C=C(\C#N)c2nc3ccccc3[nH]2)ccc1Oc1ccc([N+](=O)[O-])cn1	inconclusive: 25.1 µM [activator, single point]	
O=C(Cn1c(=O)n(CCc2ccccc2)c(=O)c2cccnc21)Nc1ccc(F)cc1	inconclusive: 22.4 µM [activator, single point]	
NC(=S)NN=C(Cc1ccccc1)Cc1ccccc1	inconclusive: 28.2 µM [activator, single point]	
COc1ccc(C2=C(C)C(N3CCC(C(=O)Nc4ccccc4F)CC3)=NS2(=O)=O)cc1	inconclusive: 35.5 µM [activator, single point]	
CN(C1CCCCC1)S(=O)(=O)c1ccc(NC(=O)Cn2nc(-c3ccc(F)cc3)ccc2=O)cc1	inconclusive: 31.6 µM [activator, single point]	
O=[N+]([O-])c1cc(C(F)(F)F)ccc1NCCc1c[nH]c2ccccc12	inconclusive: 28.2 µM [activator, single point]	
CC(=O)c1ccc(N2CCCCCC2)c(F)c1	inconclusive: 35.5 µM [activator, single point]	
COc1cc2c(cc1OC)C1=NC(=O)CN1C(SCc1ccccc1C)=N2	inconclusive: 35.5 µM [activator, single point]	
CC(C)OCCCNc1ncnc2sc3c(c12)CCCC3	inactive	
CCOC(=O)C(C)Sc1ccc2nnc(CCNS(=O)(=O)c3ccc(C)cc3)n2n1 (stereo not given)	inconclusive: 14.1 µM [activator, single point]	
COc1ccc(C(=O)CSc2nnc(CCc3ccccc3)n2-c2ccccc2)cc1	inconclusive: 8.91 µM [activator, partial curve]	
CCOc1ccc(NC(=O)N2CCN(c3nnc(C)c4c(C)n(-c5ccccc5)nc34)CC2)cc1	inactive	
COc1ccc(C(=O)Nc2cccc(-c3nnc(-c4ccco4)o3)c2)cc1	inactive	
O=C(CCC(=O)OCc1ccc([N+](=O)[O-])cc1)Nc1ccc(F)cc1	inactive	
O=C(Cn1c2ccccc2c(=O)c2ccccc21)N/N=C/c1cc([N+](=O)[O-])ccc1N1CCCCCC1	active: 20 µM	
CC(=O)N=c1c(C#N)cc2c(=O)n3ccccc3nc2n1CCCOC(C)C	inactive	
